Consider four molecules from patent US12540197B2, “Anti-tissue factor antibodies and antibody conjugates, compositions comprising anti-tissue factor antibodies or antibody conjugates, and methods of making and using anti-tissue factor antibodies and antibody conjugates” (SUTRO BIOPHARMA, INC., priority 2023, dated 2026).

Numbering of substitutions follows the chain as printed.

One test has as its target T1, human TF (Homo sapiens, UniProt P13726).
T1 construct: purchased Lake Pharma
Kind of test: Biacore off-rate and kinetic binding, human TF. To be noted: Table 12, 25° C., 1:1 Langmuir. On the procedure:
(§1) Anti-Fc polyclonal antibodies were immobilized onto a CM4 chip (Cytiva #BR100534) using amine coupling chemistry (Human Antibody Capture Kit, Cytiva #BR100839). The immobilization steps were carried out at a flow rate of 25 μL/min in 1×HBS-EP+buffer (Cytiva #BR100669). The sensor surfaces were activated for 7 min with a mixture of N-hydroxysuccinimide (NHS, 0.05 M) and 1-ethyl-3-(3-dimethylaminopropyl)-carbodiimide (EDC, 0.2 M). The anti-Fc polyclonal antibodies were injected over all 4 flow cells at a concentration of 25 μg/mL in 10 mM sodium acetate, pH 4.5, for 7 min. Ethanolamine (1 M, pH 8.5) was injected for 7 min to block any remaining activated groups. Approximately 6,000 response units (RU) of capture antibody was immobilized on each flow cell.
(§2) Off-rate and kinetic binding experiments were performed at 25° C. using 1×HBS-EP+buffer. Antibodies were injected over the anti-Fc surface at a concentration of 3 μg/mL for 12 seconds at a flow rate of 10 μL/min on flow cells 2, 3 and 4, followed by a buffer wash for 30 seconds at the same flow rate. Single point off-rate analysis was carried out using an antigen concentration of 100 nM. […] After capturing ligand (antibody) on the anti-Fc surface, the analyte (human TF, Lake Pharma; cynomolgus TF, Sino Bio #90885-C08H; mouse TF, R&D Systems #3178-PA) was bound for 180 seconds, followed by a 420 second dissociation phase at a flow rate of 50 μL/min. Between each ligand capture and analyte binding cycle, regeneration was carried out using 2 injections of 10 mM glycine pH 2.0 for 30 seconds at 30 μL/min, followed by a 30 second buffer wash step.
(§3) The data were fit with the Biacore T200 Evaluation software, using a 1:1 Langmuir binding model. KD (affinity, nM) was determined as a ratio of the kinetic rate constants calculated from the fits of the association and dissociation phases.
(§4) Anti-Fc polyclonal antibodies were immobilized onto a CM4 chip (Cytiva #BR100534) using amine coupling chemistry (Human Antibody Capture Kit, Cytiva #BR100839). The immobilization steps were carried out at a flow rate of 25 μL/min in 1×HBS-EP+buffer (Cytiva #BR100669). The sensor surfaces were activated for 7 min with a mixture of NHS (0.05 M) and EDC (0.2 M). The Anti-Fc antibodies were injected over all 4 flow cells at a concentration of 25 ug/ml in 10 mM sodium acetate, pH 4.5, for 7 min. Ethanolamine (1 M, pH 8.5) was injected for 7 min to block any remaining activated groups. Approximately 6,000 response units (RU) of capture antibody was immobilized on each flow cell. Off-rate and kinetic binding experiments were performed at 25° C. using 1×HBS-EP+buffer. Antibodies or ADCs were injected over the anti-Fc surface at a concentration of 3 μg/mL for 12 seconds at a flow rate of 10 μL/min on flow cells 2, 3 and 4, followed by a buffer wash for 30 seconds at the same flow rate. […] After capturing ligand (antibody) on the anti-Fc surface, the analyte (human TF, Lake Pharma; cynomolgus TF, Sino Bio #90885-C08H; mouse TF, R&D Systems #3178-PA) was bound for 180 seconds, followed by a 420 second dissociation phase at a flow rate of 50 μL/min. Between each ligand capture and analyte binding cycle, regeneration was carried out using 2 injections of 10 mM Glycine pH 2.0 for 30 seconds at 30 μL/min, followed by a 30 second buffer wash step. The data was fit with the Biacore T200 Evaluation software, using a 1-1 Langmuir binding model. KD (affinity, nM) was determined as a ratio of the kinetic rate constants calculated from the fits of the association and dissociation phases.
A general note: In SPR one partner is held on a chip, and binding of the other changes the refractive index at the surface.

For a further test, the system named is HEK293T. The test is described as follows: FACS cell-binding assay on parental HEK293T cells. Particulars: Table 16, parental cells. From the text:
(§5) HEK293T, BxPC3 cells (TF positive) and NCI-H1703 (TF negative) cells were obtained from ATCC (American Type Culture Collection) and maintained in DMEM:F12 (1:1), high glucose (Corning) supplemented with 10% heat-inactivated fetal bovine serum (ThermoScientific), 1× Penicillin/Streptomycin (Corning) and 2 mmol glutamax (Thermo Fisher Scientific). To generate cells that stably expressing human tissue factor (HEK293T-humanTF) or cynomolgus tissue factor (HEK293T-cynoTF), HEK293T cells were transfected with plasmid vectors that contain the corresponding protein sequence and stable clones were selected with puromycin.
(§6) For a fluorescence-activated cell sorting (FACS) cell-binding assay, cells were collected by Accutase and counted by the Vi-CELL Cell Viability Analyzersharvested and, then re-suspended in FACS buffer (DPBS buffer supplemented with 1% bovine serum albumin). A total of 200,000 cells in 100 μL were incubated on ice with 100 μL of anti-TF antibodies in each well of a 96-well plate. Cells were washed twice with ice-cold FACS buffer and then incubated on ice for 60 mins with 5 μg/mL Alexa 647-labeled donkey anti-human Fc antibody (Jackson ImmunoResearch). Unstained cells and cells stained with secondary antibody alone were used as controls. Cells were washed twice with FACS buffer and analyzed using a BD FACS Canto system. Geometric mean fluorescence intensities (MFI) were fitted using non-linear regression analysis with one site specific binding equation on GraphPad Prism (GraphPad Software; La Jolla, CA).

In the next test the test system is cynomolgus TF. The test is described as follows: Biacore off-rate and kinetic binding, cynomolgus TF. Particulars: Table 12, 25° C., 1:1 Langmuir. On the procedure: as §1, §2, §3, §4
The target in another test is T2, HEK293T-human TF (Homo sapiens, UniProt P13726).
T2 construct: expressed in transfected cells
Kind of test: FACS cell-binding assay on HEK293T-human TF cells. Particulars: Table 16.
Description: as §5
as §6, with “Cells were washed twice with ice-cold FACS buffer and then incubated on ice for 60 mins with 5 μg/mL Alexa 647-labeled donkey anti-human Fc antibody (Jackson ImmunoResearch). Unstained cells and cells stained with secondary antibody alone were used as controls.” left out

For another test, the system named is HEK293T-cyno TF. The test is described as follows: FACS cell-binding assay on HEK293T-cyno TF cells. Set-up: species or system cynomolgus. Particulars: Table 16.
Description: as §5
as §6, with “Cells were washed twice with ice-cold FACS buffer and then incubated on ice for 60 mins with 5 μg/mL Alexa 647-labeled donkey anti-human Fc antibody (Jackson ImmunoResearch). Unstained cells and cells stained with secondary antibody alone were used as controls.” left out

In test [1] the test system is primary human keratinocytes. Kind of test: Cell binding on primary adult human keratinocytes (flow cytometry). Particulars: Table 29, primary human keratinocytes; read-out: Keratinocyte Binding Kd. As for the experimental part:
Since TF is expressed in human skin, anti-TF antibody 2900-A02 and 2842-B01-Hc3/Lc2 were tested in cell binding assay on primary adult human keratinocyte cells purchased from Thermo Fisher Scientific. Keratinocytes were cultured in defined keratinocyte culture medium (EpiLife Medium, Thermo Fisher Scientific) supplemented with growth supplement S7 (S0175 from Thermo Fisher Scientific) and Penicillin/Streptomycin on plates coated with keratinocyte coating matrix (Thermo Fisher Scientific).
To evaluate antibody binding activity of the anti-TF antibodies on the adult primary keratinocytes, a total of 100,000 keratinocytes per well were incubated on ice with serial dilutions of anti-TF antibodies in FACS buffer (PBS buffer supplemented with 1% bovine serum albumin, 0.05% sodium azide) for 60 minutes. Cells were washed twice with ice-cold FACS buffer and then incubated with 5 microgram/mL Alexa 647 labeled donkey anti-human Fc antibody (Jackson ImmunoResearch, West Grove, PA) on ice for another 60 minutes. Unstained cells and cells stained with secondary antibodies alone were used as controls. Samples were then washed twice using FACS buffer and analyzed using an Attune flow cytometer (Thermo Fisher). Geometric mean fluorescence intensities were fitted using non-linear regression analysis with one site specific binding equation on GraphPad Prism.
A general note: A flow cytometer gives signals particle by particle.

T1 sequence (P13726 33-295): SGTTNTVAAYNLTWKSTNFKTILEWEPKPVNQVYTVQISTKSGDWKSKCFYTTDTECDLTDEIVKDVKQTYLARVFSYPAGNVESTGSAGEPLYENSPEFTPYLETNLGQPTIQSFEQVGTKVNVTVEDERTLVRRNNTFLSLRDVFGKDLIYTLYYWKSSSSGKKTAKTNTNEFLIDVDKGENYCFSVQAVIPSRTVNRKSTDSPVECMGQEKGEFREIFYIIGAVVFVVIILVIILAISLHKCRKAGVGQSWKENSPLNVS
T2 sequence (P13726 33-295): as above

B1: 44 (antibody)
heavy: MEVQLVESGGGLVQPGGSLRLSCAASGFTIHDYVIHWVRQAPGKGLEWVGYIDPSNGYTYYADSVKGRFTISADTSKNTAYLQMNSLRAEDTAVYYCARDDQSISSPLDYWGQGTLVTVSSASTKGPSVFPLAPSSKSTSGGTAALGCLVKDYFPEPVTVSWNSGALTSGVHTFPAVLQSSGLSLSSVVTVPSSSLGTQTYICNVNHKPSNTKVDKKVEPKSCDKTHTCPPCPAPELLGGPSVFLFPPKPKDTLMISRTPEVTCVVVDVSHEDPEVKFNWYVDGVEVHNAKTKPREEQYNSTYRVVSVLTVLHQDWLNGKEYKCKVSNKALPAPIEKTISKAKGQPREPQVYTLPPSREEMTKNQVSLTCLVKGFYPSDIAVEWESNGQPENNYKTTPPVLDSDGSFLYSKLTVDKSRWQQGNVFSCSVMHEALHNHYTQKSLSLSPGK
light: [about 200 residues not given here]
modifications: non-natural residue at Y180/F404; conjugate
Regarding B1, in the test with human TF, the “Biacore human TF kinetics ka” value is 362000 M⁻¹ s⁻¹ and the “Biacore human TF kinetics kd” value worked out at 0.00196 s⁻¹. Besides, the “HEK293T Bmax (MFI)” value in the test on HEK293T is 2046 MFI. Moreover, in the test with cynomolgus TF, the “Biacore cynomolgus TF kinetics ka” value worked out at 164000 M⁻¹ s⁻¹ and the “Biacore cynomolgus TF kinetics kd” value is 0.00309 s⁻¹.

B2: 46 (antibody)
heavy: B1 heavy with H31S
light: [about 200 residues not given here]
modifications: non-natural residue at Y180/F404; conjugate
Take B2: in the test with human TF, the “Biacore human TF kinetics ka” value was 362000 M⁻¹ s⁻¹ and the “Biacore human TF kinetics kd” value came out at 0.00226 s⁻¹. Besides, the “HEK293T Bmax (MFI)” value with HEK293T is given as 1253 MFI. Besides, in the test with cynomolgus TF, the “Biacore cynomolgus TF kinetics ka” value came to 164000 M⁻¹ s⁻¹ and the “Biacore cynomolgus TF kinetics kd” value was determined as 0.00681 s⁻¹.

B3: 36 (antibody)
heavy: B1 heavy with H31S, D32G, V34I, I104L, L108F
light: [about 200 residues not given here]
modifications: pAzMeF at Y180/F404; drug conjugate
As to B3, in the test with human TF, the “Biacore human TF kinetics ka” value was found to be 303000 M⁻¹ s⁻¹ and the “Biacore human TF kinetics kd” value was determined as 0.00144 s⁻¹. In the test with human TF (read-out: Biacore human TF kinetics KD), the Kd was 4.77 nM. The “HEK293T Bmax (MFI)” value in the test with HEK293T is 1503 MFI. In addition, in the test with HEK293T-human TF, the “HEK293T-human TF Bmax (MFI)” value was determined as 306977 MFI and the Kd is 1.2 nM. In addition, in the test on HEK293T-cyno TF, the “HEK293T-cyno TF Bmax (MFI)” value is recorded as 443667 MFI and the Kd was found to be 14 nM. In addition, in the test on cynomolgus TF, the “Biacore cynomolgus TF kinetics ka” value came out at 285000 M⁻¹ s⁻¹ and the “Biacore cynomolgus TF kinetics kd” value came to 0.000743 s⁻¹. The Kd at cynomolgus TF (read-out: Biacore cynomolgus TF kinetics KD) worked out at 2.61 nM. Besides, the Kd in test [1] came to 3.1 nM.

B4: 42 (antibody)
heavy: B1 heavy with H31S, D32Q, V34W, S55Y, D101Y, Q102G, I104W, S105R, S106I, P107R
light: [about 200 residues not given here]
modifications: non-natural residue at Y180/F404; conjugate
With B4, in the test with human TF, the “Biacore human TF kinetics ka” value came to 188000 M⁻¹ s⁻¹ and the “Biacore human TF kinetics kd” value was 0.000674 s⁻¹. In addition, the “HEK293T Bmax (MFI)” value with HEK293T came out at 1525 MFI. Moreover, in the test with cynomolgus TF, the “Biacore cynomolgus TF kinetics ka” value was 128000 M⁻¹ s⁻¹ and the “Biacore cynomolgus TF kinetics kd” value stood at 0.00309 s⁻¹.

Usually Kd stands for the constant that tells how readily two partners part at equilibrium.
